{
  "source": "the supplement of paper PMC9446081",
  "note": "About 220 (0.56%) of roughly 39,000 compounds showed activity. This is one part of the list.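 Also: static incubation at 37 °C against the wild-type strain, values averaged over two biological replicates.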",
  "data": [
    {"test_system": "Escherichia coli K-12 BW25113", "experiment": "relative growth (OD600 normalised to plate interquartile mean) (fraction); higher = less growth inhibition, active = 0.2 or less", "conditions": "50 µM; LB; incubation time: overnight (16-24 h)", "values": [
      {"compound": "C[C@@H]1CCCCO[C@H](CN(C)Cc2ccccc2)[C@@H](C)CN([C@H](C)CO)C(=O)c2cc(NC(=O)Nc3ccccc3)ccc2O1", "relative growth": "inactive: 1"},
      {"compound": "C[C@H](CO)N1C[C@H](C)[C@@H](CN(C)Cc2ccc(-c3ccccc3)cc2)Oc2ccc(NC(=O)CCC(F)(F)F)cc2CC1=O", "relative growth": "inactive: 0.969"},
      {"compound": "NCc1nnc2n1CCCCC2", "relative growth": "inactive: 1.02"},
      {"compound": "C[C@H]1CN([C@@H](C)CO)C(=O)c2cccc(NC(=O)Nc3ccc(C(F)(F)F)cc3)c2O[C@@H]1CN(C)C(=O)Nc1ccccc1", "relative growth": "inactive: 0.852"},
      {"compound": "C[C@@H]1CN([C@@H](C)CO)C(=O)Cc2cc(NS(=O)(=O)c3ccc(F)cc3)ccc2O[C@H]1CN(C)Cc1ccc(Cl)c(Cl)c1", "relative growth": "inactive: 0.989"},
      {"compound": "O.OCC(O)C(O)C(OC1OC(CO)C(O)C(O)C1O)C(O)CO", "note": "(stereo not given)", "relative growth": "inactive: 0.993"},
      {"compound": "C[C@H]1CN([C@@H](C)CO)C(=O)Cc2cc(NS(C)(=O)=O)ccc2O[C@@H]1CN(C)C", "relative growth": "inactive: 1.05"},
      {"compound": "COc1ccc(S(=O)(=O)N(C)C[C@H]2OCCCC[C@@H](C)Oc3ccc(NC(=O)Nc4cccc5ccccc45)cc3C(=O)N([C@@H](C)CO)C[C@H]2C)cc1", "relative growth": "inactive: 1.02"},
      {"compound": "C[C@@H]1CN([C@H](C)CO)C(=O)c2cccc(NC(=O)c3cnccn3)c2O[C@H]1CN(C)S(=O)(=O)c1ccc(Cl)cc1", "relative growth": "inactive: 0.987"},
      {"compound": "CO[C@@H](CN(C)S(=O)(=O)c1cccc(Cl)c1)[C@@H](C)CN([C@H](C)CO)S(=O)(=O)c1ccc(Cl)cc1", "relative growth": "inactive: 1.05"},
      {"compound": "CCCN(C)C[C@H]1OCCCC[C@H](C)Oc2ccc(NC(=O)c3ccccc3)cc2C(=O)N([C@@H](C)CO)C[C@H]1C", "relative growth": "inactive: 1.01"},
      {"compound": "C=CC[C@@H](CC(=O)N[C@H](CO)Cc1ccccc1)C(=O)NC[C@@H](OC(=O)[C@@H](CC=C)Cc1ccc(F)cc1)c1ccccc1", "relative growth": "inactive: 1.05"},
      {"compound": "O=C(C[C@H]1C[C@H]2c3cc(NC(=O)NC4CCCC4)ccc3O[C@H]2[C@@H](CO)O1)NCc1ccc2c(c1)OCO2", "relative growth": "inactive: 0.979"},
      {"compound": "CNC[C@@H]1OCCCC[C@H](C)Oc2ccc(NC(=O)Nc3cccc4ccccc34)cc2C(=O)N([C@H](C)CO)C[C@@H]1C", "relative growth": "inactive: 0.986"},
      {"compound": "COc1cccc(S(=O)(=O)N(C)C[C@H]2OCc3cn(nn3)CCCC(=O)N([C@@H](C)CO)C[C@H]2C)c1", "relative growth": "inactive: 1.01"},
      {"compound": "C[C@H]1CN([C@@H](C)CO)C(=O)c2c(c3ccccc3n2C)-c2ccccc2CO[C@@H]1CN(C)Cc1ccc(C(=O)O)cc1", "relative growth": "inactive: 0.996"},
      {"compound": "C=CCSCC(N)C(=O)O", "note": "(stereo not given)", "relative growth": "inactive: 1.03"},
      {"compound": "C[C@@H]1CN([C@H](C)CO)C(=O)c2cc(NC(=O)Nc3cccc4ccccc34)ccc2O[C@H]1CN(C)CC1CCCCC1", "relative growth": "inactive: 0.989"},
      {"compound": "CC(C)NC(=O)Nc1ccc2c(c1)C(=O)N([C@@H](C)CO)C[C@H](C)[C@@H](CN(C)C(=O)Nc1ccc(F)cc1)OCCCC[C@@H](C)O2", "relative growth": "inactive: 0.958"},
      {"compound": "Cc1nc(C)n(C(=O)N2CCOCC2)n1", "relative growth": "inactive: 1.01"},
      {"compound": "C=CC[C@H](CC(=O)NCCO)C(=O)N[C@@H](COC(=O)[C@@H](CC=C)CC(=O)OC(C)(C)C)Cc1c[nH]c2ccccc12", "relative growth": "inactive: 1.02"},
      {"compound": "COc1ccc(NC(=O)Nc2ccc3c(c2)CC(=O)N([C@H](C)CO)C[C@H](C)[C@H](CN(C)CC2CCCCC2)O3)cc1", "relative growth": "inactive: 0.967"},
      {"compound": "COc1ccc(NC(=O)N(C)C[C@H]2Oc3c(NC(=O)Nc4cccc5ccccc45)cccc3C(=O)N([C@H](C)CO)C[C@H]2C)cc1", "relative growth": "inactive: 1.05"},
      {"compound": "Cc1cccc(/C=C2\\CS/C(=C\\c3cccc(C)c3)C2=O)c1", "relative growth": "inactive: 1.03"},
      {"compound": "C[C@H](CO)N1C[C@H](C)[C@@H](CN(C)S(=O)(=O)c2ccc(F)cc2)Oc2ccc(NS(=O)(=O)c3cccs3)cc2CC1=O", "relative growth": "inactive: 0.905"},
      {"compound": "C[C@@H]1CN([C@@H](C)CO)C(=O)c2cc(NC(=O)c3ccncc3)ccc2O[C@@H](C)CCCCO[C@@H]1CN(C)S(=O)(=O)c1cn(C)cn1", "relative growth": "inactive: 0.981"},
      {"compound": "NCC1CCN(Cc2ccccc2)CC1", "relative growth": "inactive: 1.02"},
      {"compound": "CC(C)(C)NC(=O)[C@@H]1C[C@@H]2CCCC[C@@H]2CN1C[C@@H](O)[C@H](Cc1ccccc1)NC(=O)[C@H](CC(N)=O)NC(=O)c1ccc2ccccc2n1", "relative growth": "inactive: 1.02"},
      {"compound": "CCOC(=O)c1c(NC(C)=O)no[n+]1[O-]", "relative growth": "inactive: 0.997"},
      {"compound": "C[C@@H]1CN([C@@H](C)CO)C(=O)c2cc(NC(=O)NC3CCCCC3)ccc2O[C@@H](C)CCCCO[C@H]1CN(C)C(=O)c1ccncc1", "relative growth": "inactive: 1"},
      {"compound": "COc1ccccc1CNC(=O)C[C@H]1C[C@H]2c3cc(NC(=O)NC4CCCC4)ccc3O[C@H]2[C@@H](CO)O1", "relative growth": "inactive: 1.01"},
      {"compound": "O=C(C[C@@H]1CC[C@H]2[C@@H](COC[C@H](O)CN2S(=O)(=O)c2ccccc2)O1)NCCN1CCCC1", "relative growth": "inactive: 1.01"},
      {"compound": "CC(=O)Nc1ccc(O)cc1", "relative growth": "inactive: 1.11"},
      {"compound": "COc1ccc(CNC(=O)C[C@@H]2CC[C@H]3[C@@H](COC[C@H](O)CN3S(=O)(=O)c3ccc(C)cc3)O2)cc1", "relative growth": "inactive: 0.999"},
      {"compound": "C[C@@H]1CN([C@H](C)CO)C(=O)c2cc(NC(=O)C3CCCCC3)ccc2O[C@@H](C)CCCCO[C@H]1CN(C)S(=O)(=O)c1ccc(F)cc1", "relative growth": "inactive: 0.976"},
      {"compound": "CC(=O)Oc1c(C)c(C)c2c(c1C)CCC(C)(CCCC(C)CCCC(C)CCCC(C)C)O2", "note": "(stereo not drawn) [alpha-TOCHOPHERYL ACETATE [4mM]]", "relative growth": "inactive: 1.07"},
      {"compound": "CO[C@H]1CN(C)C(=O)c2ccc(NC(=O)C3CC3)cc2OC[C@H](C)N(C(=O)CN2CCOCC2)C[C@H]1C", "relative growth": "inactive: 0.997"},
      {"compound": "COc1ccc(S(=O)(=O)Nc2ccc3c(c2)C(=O)N([C@H](C)CO)C[C@@H](C)[C@H](CN(C)C(=O)C2CCCCC2)OCCCC[C@H](C)O3)cc1", "relative growth": "inactive: 1.04"},
      {"compound": "Cc1ccc(S(=O)(=O)Nc2ccc3c(c2)CC(=O)N([C@@H](C)CO)C[C@H](C)[C@H](CN(C)S(C)(=O)=O)O3)cc1", "relative growth": "inactive: 0.989"},
      {"compound": "Nc1cccc2c1CN(C1CCC(=O)NC1=O)C2=O", "note": "(stereo not given)", "relative growth": "inactive: 1.13"}
    ]}
  ]
}
